Some test systems named below: U251 glioblastoma; SNB-19 CNS; T-47D breast; HOP-92 NSCLC; MDA-MB-231 breast; SF-295 CNS; HL-60(TB) leukemia; ACHN renal; NCI-H322M lung; SF-539 CNS; PC-3 prostate.
What all share (test): inhibition of tumour cell growth, NCI panel, 384-well format

This is an account of results in PubChem BioAssay (NCI).

Molecules are shown by their SMILES.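 TGI denotes the concentration required for complete inhibition of growth.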 Some entries of the source have several records that differ or are many. They are shown here; other results are not. The source may hold further records. For part of these data: Records of one sample usually come from different ranges of test concentrations, which the source does not state; a value can be the end of its range. A tag in brackets gives the origin of a value. Letters hold for one entry only. For part of these data: Results that share an entry repeat one measurement in other runs, samples, wells, individuals or studies.

`COc1cccc2c1C(=O)c1c(O)c3c(c(O)c1C2=O)C[C@@](O)(C(=O)CO)C[C@@H]3OC1CC(N)C(O)C(C)O1` (some centres not stated): the TGI was 155 nM [sample A, mean of 4 tests] and 78.5 nM [sample A, mean of 56 tests] and 1.27 µM [sample B, 1 test] in the test with U251 glioblastoma; 453 nM [sample A, mean of 4 tests] and 308 nM [sample A, mean of 42 tests] and 13.8 µM [sample B, 1 test] in the test on SNB-19 CNS; 271 nM [sample A, mean of 3 tests] and 272 nM [sample A, mean of 54 tests] and 12.6 µM [sample B, 1 test] in the test with T-47D breast; 548 nM [sample A, mean of 4 tests] and 191 nM [sample A, mean of 61 tests] and 10.2 µM [sample B, 1 test] in the test with HOP-92 NSCLC.
`COc1c(OCCCN2CCOCC2)ccc2c3n(c(=NC(=O)c4cnc(N)nc4)nc12)CCN3`: the TGI is > 50 µM [sample A, 1 test] and 1.76 µM [sample B, 1 test] with MDA-MB-231 breast; > 50 µM [sample A, 1 test] and 666 nM [sample B, mean of 2 tests] in the test with SF-295 CNS; 15.8 nM [sample A, 1 test] and 244 nM [sample B, mean of 2 tests] in the test on HL-60(TB) leukemia; 448 nM [sample A, 1 test] and > 100 µM [sample B, mean of 2 tests] in the test on ACHN renal; > 50 µM [sample A, 1 test] and 1.47 µM [sample B, mean of 2 tests] in the test with NCI-H322M lung; > 50 µM [sample A, 1 test] and 506 nM [sample B, 1 test] in the test on HOP-92 NSCLC. Further, the TGI is > 50 µM [sample A, 1 test] and 3.28 µM [sample B, mean of 2 tests] in the test with SF-539 CNS; 19.5 µM [sample A, 1 test] and 1.17 µM [sample B, 1 test] in the test with PC-3 prostate.
